For seven molecules, binding results are on record in paper PMC2714578.

The chains behind the UniProt entries cited, without tags or fusion partners.
UniProt O60493: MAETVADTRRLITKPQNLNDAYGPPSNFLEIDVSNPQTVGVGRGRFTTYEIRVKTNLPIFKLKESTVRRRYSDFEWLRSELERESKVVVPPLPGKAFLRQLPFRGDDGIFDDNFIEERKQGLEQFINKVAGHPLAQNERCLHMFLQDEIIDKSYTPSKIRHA
UniProt Q13596: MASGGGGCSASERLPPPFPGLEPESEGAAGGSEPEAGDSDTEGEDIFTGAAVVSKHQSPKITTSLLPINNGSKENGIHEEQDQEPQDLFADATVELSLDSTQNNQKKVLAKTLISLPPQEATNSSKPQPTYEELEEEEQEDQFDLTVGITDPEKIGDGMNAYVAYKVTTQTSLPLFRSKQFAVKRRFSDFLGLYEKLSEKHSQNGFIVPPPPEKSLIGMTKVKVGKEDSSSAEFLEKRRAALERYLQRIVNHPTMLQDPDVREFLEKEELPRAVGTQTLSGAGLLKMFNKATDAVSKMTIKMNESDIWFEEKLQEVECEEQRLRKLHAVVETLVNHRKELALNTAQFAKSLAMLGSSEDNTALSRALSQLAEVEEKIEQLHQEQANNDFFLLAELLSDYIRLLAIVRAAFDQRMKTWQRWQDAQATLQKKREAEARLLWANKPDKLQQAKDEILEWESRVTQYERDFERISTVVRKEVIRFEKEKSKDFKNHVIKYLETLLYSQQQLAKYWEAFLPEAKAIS
UniProt Q13409: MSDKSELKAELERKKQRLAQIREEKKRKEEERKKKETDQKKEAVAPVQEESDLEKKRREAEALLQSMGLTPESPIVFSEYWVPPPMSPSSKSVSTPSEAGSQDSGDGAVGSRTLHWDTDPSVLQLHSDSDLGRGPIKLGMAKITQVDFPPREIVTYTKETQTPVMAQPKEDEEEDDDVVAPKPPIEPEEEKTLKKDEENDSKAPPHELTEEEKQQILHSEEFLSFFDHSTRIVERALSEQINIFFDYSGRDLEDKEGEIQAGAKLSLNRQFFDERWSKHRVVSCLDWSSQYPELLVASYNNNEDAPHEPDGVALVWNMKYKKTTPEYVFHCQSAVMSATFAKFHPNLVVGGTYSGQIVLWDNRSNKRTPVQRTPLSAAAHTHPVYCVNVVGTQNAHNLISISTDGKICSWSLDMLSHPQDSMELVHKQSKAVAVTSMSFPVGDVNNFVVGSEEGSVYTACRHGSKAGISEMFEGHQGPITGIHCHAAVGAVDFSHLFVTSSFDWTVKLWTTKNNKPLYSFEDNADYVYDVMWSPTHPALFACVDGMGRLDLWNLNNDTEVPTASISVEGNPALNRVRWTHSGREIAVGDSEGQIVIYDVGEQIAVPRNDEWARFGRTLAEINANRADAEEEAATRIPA
UniProt Q13561: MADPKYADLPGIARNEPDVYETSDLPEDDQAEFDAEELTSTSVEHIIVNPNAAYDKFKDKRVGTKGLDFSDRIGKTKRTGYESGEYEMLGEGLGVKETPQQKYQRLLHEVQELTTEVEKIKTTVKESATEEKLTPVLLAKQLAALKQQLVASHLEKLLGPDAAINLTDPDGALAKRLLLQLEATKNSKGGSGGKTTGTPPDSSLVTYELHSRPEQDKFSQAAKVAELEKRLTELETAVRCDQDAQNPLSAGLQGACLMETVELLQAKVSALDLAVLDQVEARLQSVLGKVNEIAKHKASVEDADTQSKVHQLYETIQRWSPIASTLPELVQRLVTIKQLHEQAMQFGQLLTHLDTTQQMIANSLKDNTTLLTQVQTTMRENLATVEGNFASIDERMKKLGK

The target in one experiment is T1, Flag-tagged SNX6 (UniProt Q9UNH7).
T1 sequence: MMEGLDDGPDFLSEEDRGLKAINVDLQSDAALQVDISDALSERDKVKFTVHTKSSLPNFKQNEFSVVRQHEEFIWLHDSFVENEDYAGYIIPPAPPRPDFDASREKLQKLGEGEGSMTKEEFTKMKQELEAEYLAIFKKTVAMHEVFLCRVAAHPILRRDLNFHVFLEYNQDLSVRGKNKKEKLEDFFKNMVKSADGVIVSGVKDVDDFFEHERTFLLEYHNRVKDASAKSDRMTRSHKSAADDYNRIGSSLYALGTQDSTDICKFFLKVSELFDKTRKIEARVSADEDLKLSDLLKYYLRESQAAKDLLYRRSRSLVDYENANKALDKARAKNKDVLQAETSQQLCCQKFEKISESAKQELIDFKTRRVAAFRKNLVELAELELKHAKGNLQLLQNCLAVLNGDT
Briefly: co-IP; immunoprecipitation of Flag-SNX6 from HeLa cells coexpressing GFP-SNX1 or GFP-SNX5; lysis buffer 20 mM HEPES pH 7.2, 100 mM K-acetate, 2.5 mM Mg-acetate, 0.1% Triton X-100; 4°C.

A further experiment has as its target GST-SNX3 (UniProt O60493). Description: pull-down; GST-fusion proteins expressed in HEK293T cells and isolated by GST affinity chromatography; blots for endogenous p150^glued, DYNC1I2, p50^dynamitin, SNX1 and SNX2.
In a further experiment the target is T2, GST-SNX5 (UniProt Q9Y5X3).
T2 sequence: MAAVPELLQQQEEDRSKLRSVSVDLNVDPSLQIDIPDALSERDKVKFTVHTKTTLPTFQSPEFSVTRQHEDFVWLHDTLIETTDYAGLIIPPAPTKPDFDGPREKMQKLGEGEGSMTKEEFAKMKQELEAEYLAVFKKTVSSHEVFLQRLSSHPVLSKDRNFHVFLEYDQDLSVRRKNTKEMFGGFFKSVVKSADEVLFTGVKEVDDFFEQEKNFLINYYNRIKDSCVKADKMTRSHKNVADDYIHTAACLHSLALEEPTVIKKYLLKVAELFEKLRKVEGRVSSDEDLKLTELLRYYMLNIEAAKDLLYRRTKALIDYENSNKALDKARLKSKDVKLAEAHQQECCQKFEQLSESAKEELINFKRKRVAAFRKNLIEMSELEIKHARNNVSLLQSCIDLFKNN
The experiment is described as above.

The target of another experiment is T3, GST-SNX6 (UniProt Q9UNH7).
T3 sequence: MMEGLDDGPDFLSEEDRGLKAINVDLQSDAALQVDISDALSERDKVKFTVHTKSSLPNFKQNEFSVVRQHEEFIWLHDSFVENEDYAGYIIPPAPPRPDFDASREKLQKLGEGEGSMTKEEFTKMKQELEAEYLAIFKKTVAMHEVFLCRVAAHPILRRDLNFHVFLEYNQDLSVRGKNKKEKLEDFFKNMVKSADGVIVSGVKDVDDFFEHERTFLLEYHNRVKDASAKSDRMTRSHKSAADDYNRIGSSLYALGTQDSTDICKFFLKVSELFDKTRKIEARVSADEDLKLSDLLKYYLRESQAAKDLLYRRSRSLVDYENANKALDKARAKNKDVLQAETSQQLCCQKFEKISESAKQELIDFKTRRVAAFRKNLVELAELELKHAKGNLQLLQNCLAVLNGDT
The experiment is described as above.

The next experiment has as its target GST-tagged SNX3 (UniProt O60493). Description: pull-down; GST pull-downs from HeLa cells expressing GST or GST-tagged SNX3, SNX4, SNX5 or SNX6; blots for endogenous SNX1 and SNX2.
The target of another experiment is T4, GST-tagged SNX4 (UniProt O95219).
T4 sequence: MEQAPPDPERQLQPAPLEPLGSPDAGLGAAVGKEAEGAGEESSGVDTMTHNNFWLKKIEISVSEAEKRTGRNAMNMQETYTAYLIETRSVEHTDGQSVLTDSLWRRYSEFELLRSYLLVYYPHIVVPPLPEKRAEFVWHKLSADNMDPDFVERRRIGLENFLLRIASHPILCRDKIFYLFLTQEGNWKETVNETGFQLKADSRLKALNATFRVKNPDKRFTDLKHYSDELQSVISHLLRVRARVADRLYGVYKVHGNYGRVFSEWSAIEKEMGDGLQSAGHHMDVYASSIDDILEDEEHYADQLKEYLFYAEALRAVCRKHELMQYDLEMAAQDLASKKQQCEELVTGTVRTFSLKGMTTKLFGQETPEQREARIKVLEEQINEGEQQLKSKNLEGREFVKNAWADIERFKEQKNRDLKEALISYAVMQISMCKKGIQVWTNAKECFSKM
The description is as above.

A further experiment addresses T5, GST-tagged SNX6 (UniProt Q9UNH7).
T5 sequence: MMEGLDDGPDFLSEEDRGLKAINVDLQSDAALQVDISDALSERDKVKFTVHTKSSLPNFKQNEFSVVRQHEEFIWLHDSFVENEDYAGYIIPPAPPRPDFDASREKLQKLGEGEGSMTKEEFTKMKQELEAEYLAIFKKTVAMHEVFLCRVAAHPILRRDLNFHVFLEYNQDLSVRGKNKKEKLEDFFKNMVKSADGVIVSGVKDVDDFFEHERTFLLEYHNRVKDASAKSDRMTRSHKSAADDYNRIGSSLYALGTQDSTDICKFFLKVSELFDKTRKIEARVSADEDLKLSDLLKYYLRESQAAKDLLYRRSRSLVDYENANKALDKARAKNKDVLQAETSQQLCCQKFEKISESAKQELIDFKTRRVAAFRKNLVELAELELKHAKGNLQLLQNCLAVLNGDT
Described as above.

Experiment [1] has as its target T6, sorting nexin-6 (human (endogenous in HeLa)) (UniProt Q9UNH7).
T6 sequence: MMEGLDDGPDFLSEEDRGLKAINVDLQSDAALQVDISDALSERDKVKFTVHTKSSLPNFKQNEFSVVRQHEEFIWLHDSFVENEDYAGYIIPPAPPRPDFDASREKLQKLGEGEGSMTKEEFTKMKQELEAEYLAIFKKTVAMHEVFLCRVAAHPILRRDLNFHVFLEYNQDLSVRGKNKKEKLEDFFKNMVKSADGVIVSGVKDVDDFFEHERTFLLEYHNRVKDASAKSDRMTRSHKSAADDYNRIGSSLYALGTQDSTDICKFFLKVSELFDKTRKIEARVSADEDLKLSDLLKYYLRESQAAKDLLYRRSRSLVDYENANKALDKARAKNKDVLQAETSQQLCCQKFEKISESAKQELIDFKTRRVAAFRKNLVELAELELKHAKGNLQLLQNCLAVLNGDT
Description: co-IP; endogenous proteins precipitated from HeLa lysate with antibodies against SNX6, SNX1 or SNX2 and G-agarose, blots for SNX1 or SNX2; lysis buffer 20 mM HEPES pH 7.2, 100 mM K-acetate, 2.5 mM Mg-acetate, 0.1% Triton X-100; 4°C.

The target of another experiment is T7, Flag-tagged SNX6, Q9UNH7.
T7 chain: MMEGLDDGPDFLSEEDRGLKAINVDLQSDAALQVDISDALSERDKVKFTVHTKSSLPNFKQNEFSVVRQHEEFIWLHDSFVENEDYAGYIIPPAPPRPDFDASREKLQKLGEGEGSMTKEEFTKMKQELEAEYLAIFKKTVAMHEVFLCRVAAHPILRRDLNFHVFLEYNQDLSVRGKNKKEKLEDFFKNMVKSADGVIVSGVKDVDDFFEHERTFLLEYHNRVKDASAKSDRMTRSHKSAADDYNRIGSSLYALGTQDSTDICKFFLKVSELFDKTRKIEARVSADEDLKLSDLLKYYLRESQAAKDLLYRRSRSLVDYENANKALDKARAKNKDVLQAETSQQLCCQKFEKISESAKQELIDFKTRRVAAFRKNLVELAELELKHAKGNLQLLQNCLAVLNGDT
Description: co-IP; immunoprecipitation of Flag-SNX6 from HeLa cells coexpressing GFP-SNX1 or GFP-SNX5; lysis buffer 20 mM HEPES pH 7.2, 100 mM K-acetate, 2.5 mM Mg-acetate, 0.1% Triton X-100; 4°C. Conditions: remark: other sources report otherwise.

A further experiment has as its target GST-SNX1 (UniProt Q13596). Briefly: pull-down; GST fusions purified from E. coli incubated with lysate of HeLa cells lentivirally transduced with Flag-Rab6IP1; complexes isolated by GST pull-down; only the target purified.
The next experiment concerns the target T8, GST-SNX4 (UniProt O95219).
T8 sequence: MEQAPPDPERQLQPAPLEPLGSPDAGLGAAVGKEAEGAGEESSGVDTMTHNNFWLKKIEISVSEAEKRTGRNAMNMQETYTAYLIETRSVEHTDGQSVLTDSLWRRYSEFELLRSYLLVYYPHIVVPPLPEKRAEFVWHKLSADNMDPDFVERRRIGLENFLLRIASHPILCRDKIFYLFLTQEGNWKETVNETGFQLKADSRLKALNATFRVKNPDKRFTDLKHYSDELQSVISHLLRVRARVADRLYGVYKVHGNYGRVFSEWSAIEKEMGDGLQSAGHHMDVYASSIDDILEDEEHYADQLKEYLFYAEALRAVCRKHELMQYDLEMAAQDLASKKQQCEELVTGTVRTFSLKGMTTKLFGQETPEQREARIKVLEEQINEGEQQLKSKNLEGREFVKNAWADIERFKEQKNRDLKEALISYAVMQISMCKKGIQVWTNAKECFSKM
The experiment is described as above.

These are yes or no findings as the source states them, for the method shown. In cells and extracts the contact can be indirect. Some binding calls cover weakened binding; strength is not graded here. For some assays here: Tags and fused reporters may be left off the sequences shown.

For the molecule GFP-SNX1 (from UniProt Q13596 1-522), the binding entry in the experiment with Flag-tagged SNX6 is given as “binds”.

Regarding “dynein intermediate chain (DYNC1I2) (from UniProt Q13409 1-638)”, the binding entry with GST-SNX3 was “no binding”.

Take “p50^dynamitin (from UniProt Q13561 1-401)”: the figures for the binding entry with GST-SNX3, with GST-SNX5 and with GST-SNX6 were “no binding”, “binds” and “binds”, respectively.

Take “p150^glued (from UniProt Q14203-1 1-1278)”: the results for the binding result with GST-SNX3, with GST-SNX5 and with GST-SNX6 were “no binding”, “binds” and “binds”, respectively.

In the case of “sorting nexin-1 (from UniProt Q13596 1-522)”, the binding entry is reported as “no binding” with GST-tagged SNX3; “no binding” in the experiment with GST-tagged SNX4; “binds” with GST-tagged SNX6; “no binding” with GST-SNX3; “binds” with GST-SNX6; “binds” in experiment [1].

B1: GFP-tagged SNX5, Q9Y5X3 1-404 (protein)
chain: MAAVPELLQQQEEDRSKLRSVSVDLNVDPSLQIDIPDALSERDKVKFTVHTKTTLPTFQSPEFSVTRQHEDFVWLHDTLIETTDYAGLIIPPAPTKPDFDGPREKMQKLGEGEGSMTKEEFAKMKQELEAEYLAVFKKTVSSHEVFLQRLSSHPVLSKDRNFHVFLEYDQDLSVRRKNTKEMFGGFFKSVVKSADEVLFTGVKEVDDFFEQEKNFLINYYNRIKDSCVKADKMTRSHKNVADDYIHTAACLHSLALEEPTVIKKYLLKVAELFEKLRKVEGRVSSDEDLKLTELLRYYMLNIEAAKDLLYRRTKALIDYENSNKALDKARLKSKDVKLAEAHQQECCQKFEQLSESAKEELINFKRKRVAAFRKNLIEMSELEIKHARNNVSLLQSCIDLFKNN
Consider B1, for which the binding result with Flag-tagged SNX6, Q9UNH7 is “no binding”.

B2: Flag-Rab6IP1 (protein, UniProt Q6IQ26 1-1287)
chain: MSGGGGGGGSAPSRFADYFVICGLDTETGLEPDELSALCQYIQASKARDGASPFISSTTEGENFEQTPLRRTFKSKVLARYPENVEWNPFDQDAVGMLCMPKGLAFKTQADPREPQFHAFIITREDGSRTFGFALTFYEEVTSKQICSAMQTLYHMHNAEYDVLHAPPADDRDQSSMEDGEDTPVTKLQRFNSYDISRDTLYVSKCICLITPMSFMKACRSVLEQLHQAVTSPQPPPLPLESYIYNVLYEVPLPPPGRSLKFSGVYGPIICQRPSTNELPLFDFPVKEVFELLGVENVFQLFTCALLEFQILLYSQHYQRLMTVAETITALMFPFQWQHVYVPILPASLLHFLDAPVPYLMGLHSNGLDDRSKLELPQEANLCFVDIDNHFIELPEDLPQFPNKLEFVQEVSEILMAFGIPPEGNLHCSESASKLKRLRASELVSDKRNGNIAGSPLHSYELLKENETIARLQALVKRTGVSLEKLEVREDPSSNKDLKVQCDEEELRIYQLNIQIREVFANRFTQMFADYEVFVIQPSQDKESWFTNREQMQNFDKASFLSDQPEPYLPFLSRFLETQMFASFIDNKIMCHDDDDKDPVLRVFDSRVDKIRLLNVRTPTLRTSMYQKCTTVDEAEKAIELRLAKIDHTAIHPHLLDMKIGQGKYEPGFFPKLQSDVLSTGPASNKWTKRNAPAQWRRKDRQKQHTEHLRLDNDQREKYIQEARTMGSTIRQPKLSNLSPSVIAQTNWKFVEGLLKECRNKTKRMLVEKMGREAVELGHGEVNITGVEENTLIASLCDLLERIWSHGLQVKQGKSALWSHLLHYQDNRQRKLTSGSLSTSGILLDSERRKSDASSLMPPLRISLIQDMRHIQNIGEIKTDVGKARAWVRLSMEKKLLSRHLKQLLSDHELTKKLYKRYAFLRCDDEKEQFLYHLLSFNAVDYFCFTNVFTTILIPYHILIVPSKKLGGSMFTANPWICISGELGETQIMQIPRNVLEMTFECQNLGKLTTVQIGHDNSGLYAKWLVEYVMVRNEITGHTYKFPCGRWLGKGMDDGSLERILVGELLTSQPEVDERPCRTPPLQQSPSVIRRLVTISPNNKPKLNTGQIQESIGEAVNGIVKHFHKPEKERGSLTLLLCGECGLVSALEQAFQHGFKSPRLFKNVFIWDFLEKAQTYYETLEKNEVVPEENWHTRARNFCRFVTAINNTPRNIGKDGKFQMLVCLGARDHLLHHWIALLADCPITAHMYEDVALIKDHTLVNSLIRVLQTLQEFNITLETSLVKGIDI
For B2, the binding result is on record as “binds” in the experiment with GST-SNX1 and “no binding” with GST-SNX4.
